From the supplement of paper PMC8674133

B1: C2051 (protein)
chain 1: QVQLVQSGAEVKKPGSSVKVSCKASGGTFSTYAISWVRQAPGQGLEWMGGIIPIFGTANYAQKFQGRVTITADKSTTTAYMELSSLRSEDTAVYYCARDARGCSHDSVWGSFQDCYHGMDVWGQGTTVTVSS
chain 2: DIQMTQSPSSLSASVGDRVTITCRASQGISNYLAWYQQKPGKVPKLLIYAASTLQSGVPSRFSGSGSGTDFTLTISSLQPEDVATYYCQKGTFGPGTKVDIK
B2: C2015 (protein)
chain 1: EVQLVQSGAEVKKPGESLKISCKGSGYSFTSYWIGWVRQMPGKGLEWMGIIYPGDSDTRYSPSFQGQVTISADKSISTAYLQWSSLKASDTAMYYCARQVLTYYDILTGYSFEYYFDYWGQGTLVTVSS
chain 2: EIVLTQSPATLSLSPGERATLSCRASQSVSSYLAWYQQKPGQAPRLLIYDASNRATGIPARFSGSGSGTDFTLTISSLEPEDFAVYYCQQRSNWLTFGGGTKVEIK
B3: C2397 (protein)
chain 1: EVQLVQSGAEVKKPGESLKISCKGSGYSFTRYWIGWVRQMPGKGLEWMGIIYSGGSETRYNPSFQGLITISTDKSVSTAYLRWSSLKASDTAMYYCARSDTDNYFDYWGQGTLVTVSS
chain 2: EIVMTQSPATLSISPGERATLSCRASQSISNNLAWYQQKPGQAPRLLIYGASTRATGVPARFSGSWSGTEFTLTINSLHSEDFAVYYCQQYNNWPPITFGQGTRLEIK
B4: C2440 (protein)
chain 1: EVQLVESRGGLLQPGGSLRLSCAASGFSFSRFDMHWVRQGPGKRLEWVSAIGTSGDTYYADSVKARFTISRENARSSLYLQMNSLRAGDTAVYYCARGADSVMGNWYFDLWGRGTLVTVSS
chain 2: QSALTQPASVSGSPGQSITISCTGTSSDVGSYNLVSWYQQHPGKAPKLIIYEGIKRPSGVSDRFTGSSSGTTASLTISGLQAEDEADYYCCSYAGGTTFYVFGTGTKVTVL
B5: C2411 (protein)
chain 1: QVQLQESGPGLVKPSETLSLTCTVSGGSISSYYWSWIRQPPGKGLEWIGYIHYSGSTNYNPSLKSRVTISVDTSKNQFSLKLSSVTAADTAVYYCARHYDILTALSWFDPWGQGTLVTVSS
chain 2: DIQLTQSPSFLSASVGDRVTITCRASQGISSYLAWYQQKPGKAPKLLIYAASTLQSGVPSRFSGSGSGTEFTLTISSLQPEDFATYYCQQLNSYPPYTFGQGTKLEIK
B6: C2453 (protein)
chain 1: QVQLVQSGAEVKKPGSSVKVSCKASGGTFGSYALSWVRQAPGQGLEWMGGIIPIFGTPHYAQRFQGRVTITADESTSTAYMELGSLKSDDTAVYYCARRSSSSVDWFDPWGQGTLVTVSS
chain 2: QSALTQPASVSGSPGQSITISCTGTGSDLGGYNYVSWYQQLSGKAPKLMIYYVTNRPSGVSDRFSGSKSGNTASLTISGLQAEDEAVYYCSSYTSSSTPYVFGTGTKVTVL
B7: C2454 (protein)
chain 1: QVQLVQSGAEVKRPGASVKVSCKTSGYMFTSYDINWVRQATGQGLEWMGWMNPDSGNAGYAQKFQGRVTMTRNTSINTAYLELSSLRSDDTGVYYCARPRPGYCSGGHCYNYYYYAMAVWGQGTTVTVSS
chain 2: QSALTQPPSASGSPGQSVTISCTGTSSDVGGYNYVSWYQQHPGKAPKLMMYEVSKRPSGVPDRFSGSKSGNTAFLTVSGLQAEDEADYYCNSYAGSNNEVFGTGTKVTVL

What follows are binders tested against SARS-CoV-2 Wuhan-Hu-1 spike pseudovirus (assay: pseudovirus neutralization IC50; higher = weaker neutralization).
Procedure: (§1)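 Single-round luciferase reporter pseudovirus mixed with antibody dilutions and put on 293T-ACE2 cells for 48 h; signal relative to no-antibody wells, four-parameter fit.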
For B1, the “pseudovirus neutralization IC50” value was 0.0041 µg/mL.
For B2, the “pseudovirus neutralization IC50” value was over 1 µg/mL.

These binders were tested against SARS-CoV-2 Wuhan-Hu-1 spike pseudovirus (assay: pseudovirus neutralization IC90; higher = weaker neutralization).
Procedure: as §1
B1 was tested, and the “pseudovirus neutralization IC90” value was 0.0273 µg/mL.
In the case of B2, the “pseudovirus neutralization IC90” value is reported as over 1 µg/mL.

Each binder was assayed against SARS-CoV-2 Wuhan-Hu-1 spike receptor-binding domain (assay: ELISA binding EC50; higher = weaker binding; ELISA of recombinant human antibody on coated antigen, from 10 µg/ml in fourfold dilutions; four-parameter fit.).
With B1 the “ELISA binding EC50” value was 0.00171 µg/mL.
B2 was tested, and the “ELISA binding EC50” value was 0.00264 µg/mL.
B3 was tested, and the “ELISA binding EC50” value was over 10 µg/mL.
B4 was tested, and the “ELISA binding EC50” value was over 10 µg/mL.
In the case of B5, the “ELISA binding EC50” value is reported as over 10 µg/mL.
For B6, the “ELISA binding EC50” value was over 10 µg/mL.
In the case of B7, the “ELISA binding EC50” value is reported as over 10 µg/mL.

Recombinant human monoclonal antibodies (heavy:light variable regions). ELISA EC50 on the named antigen, from 10 µg/ml down; IC50 / IC90 against spike pseudovirus on 293T-ACE2 cells, 48 h; lower = stronger. Calls: IC50 above 1,000 ng/ml = non-neutralizing; EC50 above 2,000 ng/ml = non-binder. The source prints 1000 for neutralization that was not reached; it is given as >1000 ng/ml. A few antibodies were first reported in earlier work of the same group.
